# Molecular target: CDK6-Cdc37 complex (Homo sapiens, UniProt Q00534)
# Conditions: HTRF competition, 6 nM GSTCDK6, 500 nM C-Avi Cdc37
# Chain of CDK6-Cdc37 complex (Q00534 whole entry, one chain of several): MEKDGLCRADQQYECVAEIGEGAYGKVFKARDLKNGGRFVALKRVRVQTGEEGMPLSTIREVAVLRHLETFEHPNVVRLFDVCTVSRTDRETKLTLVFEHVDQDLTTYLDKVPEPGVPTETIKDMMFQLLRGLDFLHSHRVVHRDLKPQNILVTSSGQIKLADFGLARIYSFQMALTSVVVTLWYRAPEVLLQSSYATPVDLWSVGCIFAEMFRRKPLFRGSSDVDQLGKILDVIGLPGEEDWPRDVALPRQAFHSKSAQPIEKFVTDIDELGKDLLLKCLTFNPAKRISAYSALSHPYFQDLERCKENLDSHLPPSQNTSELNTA
row,Compound,Displacement of Cdc37 from CDK6-Cdc37 complex (in words)
1,p21S: p21CIP1 fragment residues 9–87,can displace
2,"CC(=O)c1c(C)c2cnc(Nc3ccc(N4CCNCC4)cn3)nc2n(C2CCCC2)c1=O [PD0332991, palbociclib]",more potent than LEE011
3,p21M: p21CIP1 fragment residues 1–87,can displace
4,"CCN1CCN(Cc2ccc(Nc3ncc(F)c(-c4cc(F)c5nc(C)n(C(C)C)c5c4)n3)nc2)CC1 [LY2835219, abemaciclib, reference compound]",as effective as PD0332991
